In PubChem BioAssay AID1508623 (National Center for Advancing Translational Sciences (NCATS), 2021):
Screen size: about 48,000 compounds; about 450 (0.94%) were called active. Inconclusive results (about 19%) are left out. Calls come from the whole dose curve; as a rule, active = well fitted inhibition curve with a large enough effect; inconclusive = small, poorly fitted or top-dose-only effect; inactive = no such curve, though single readings can be large or run the other way. Some of the results follow.

experiment: Primary qHTS for Identification of Small Molecule Inhibitors of Huntingtin Promoter Activity; details: HEK293 HTT promoter firefly luciferase reporter (activity 0% = vehicle and -100% = no light), 24 h; series mostly up to 57.5 µM; activity change, negative = inhibition: at the top concentration; note: nearly all actives have a fitted effect of over 50% in size
How it was run: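 Firefly luciferase signal from promoter-reporter HEK293 cells was scaled between vehicle (0%) and zero RLU (-100%). Compounds were tested at final concentrations of up to 57.5 uM over 24 h at 37 degrees C. PTC124 at 50 uM final served as control inhibitor.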
Potency is the fitted concentration of half-maximal effect.

SMILES	activity change, negative = inhibition	Potency
COc1ccc(-c2noc(-c3ccc(N4CCCC4)c([N+](=O)[O-])c3)n2)cc1OC	inactive: -8.01%	–
CCC(=O)O[C@]1(C(=O)CCl)[C@@H](C)C[C@H]2[C@@H]3CCC4=CC(=O)C=C[C@]4(C)[C@@]3(F)[C@@H](O)C[C@@]21C	inactive	–
CCc1ccc(-n2nc(C)c3c(C(=O)N4CCN(c5ccccc5)CC4)cc(C)nc32)cc1	inactive: -24.5%	–
CCOc1ccc(CNC(=O)C2CCCN(c3nnc(C)c4c(C)n(-c5ccccc5)nc34)C2)cc1 (stereo not given)	inactive: -13.9%	–
O=C1C[C@@H](c2ccc(O)cc2)Oc2cc(O)cc(O)c21	inactive: 32.4%	–
CCOc1cc(C2NC(=O)c3c(sc4c3CCN(C)C4)N2)ccc1OC(=O)c1ccc(Br)cc1 (stereo not given)	inactive: -4.41%	–
Cc1nn2c(C)c(C(=O)NC(C)c3ccccc3)cnc2c1-c1ccc(F)cc1 (stereo not given)	inactive: -14.8%	–
CCOc1ccc(NC(=O)Cn2cnc3sc(C)c(S(=O)(=O)N4CCN(c5ccccc5OC)CC4)c3c2=O)cc1	inactive: -20.5%	–
COc1ccc(C)cc1NC(=O)c1cc2c(=O)n3cccc(C)c3nc2s1	inactive: 1.61%	–
CCC(=O)N1CCCc2cc(S(=O)(=O)N3CCC(C(=O)NCc4ccc(F)cc4)CC3)ccc21	inactive: -32.3%	–
Cc1cccc(C)c1-n1ncc(C(=O)O)c1C1CCN(C(=O)OC(C)(C)C)CC1	inactive: 16.8%	–
COc1ccc(Cl)cc1NC(=O)c1cn(C2CCCC2)c(=O)c2c1c1ccccc1n2C	inactive: -3.98%	–
Cc1cccc(N(CC(=O)Nc2ccccc2C(F)(F)F)S(=O)(=O)c2ccccc2)c1C	inactive: -28.6%	–
COc1ccc(OC)c(C2CC(=O)Oc3c2c(=O)n(C)c2ccccc32)c1 (stereo not given)	inactive: -27.6%	–
O=C(Nc1ccc(F)cc1)c1ccc2c(=O)n3c(nc2c1)CCCCC3	inactive: 11.3%	–
COCCCNC(=O)CSc1nc2c(sc3ccccc32)c(=O)n1CCc1ccc(OC)c(OC)c1	inactive: -8.32%	–
COc1ccccc1C(=O)NC1(C(F)(F)F)C(=O)Nc2c1c(=O)[nH]c(=O)n2-c1ccc(F)cc1 (stereo not given)	inactive: 1.63%	–
CN(C)CCNC(=O)Cn1ccc2cc(S(=O)(=O)N3CCCCCC3)ccc21	inactive: 2.74%	–
Cc1cccc(Cn2c(-c3cccc(Br)c3)nc3ccccc32)c1	inactive: -25.6%	–
COc1ccc(CNC(=O)CSc2ncc3c(n2)-c2ccc(Cl)cc2N(Cc2ccccc2)S3(=O)=O)cc1	inactive: -10.9%	–
COc1ccc(C(=O)NCc2ccc3c(c2)CCN3C(C)=O)c(OC)c1	inactive: -23%	–
Cc1ccccc1NC(=O)C1CCN(S(=O)(=O)c2c(C)noc2/C=C/c2ccco2)CC1	inactive: -19.6%	–
CCC(=O)N1CCc2cc(CNC(=O)c3cccc(N(C)C)c3)ccc21	inactive: -13.9%	–
CCc1ccccc1N1C(=O)CN(S(=O)(=O)CC)CC1(C)C(=O)NC1CCCCC1 (stereo not given)	inactive: -13.5%	–

SMILES	activity change, negative = inhibition	Potency
NC(=O)c1c(OCc2c(F)cc(Br)cc2F)nsc1NC(=O)NCCCCN1CCCC1	inactive: -19.9%	–
CCC(=O)OC1=C(C(C)=O)N(Cc2ccccc2)S(=O)(=O)c2ccccc21	inactive: -4.05%	–
Cc1ccc(Cn2c(SCc3ccc(C(=O)N4CCCCC4)cc3)nc3ccncc32)cc1	–	active: 12.6 µM
CCc1ccccc1NC(=O)Cn1nc(CC)n2c(cc3sccc32)c1=O	inactive: -0.775%	–
NC(=O)c1ccc([N+](=O)[O-])cc1Cl	inactive: -0.163%	–
COc1ccc(-c2cc(C(=O)N3CCCCC3C)no2)cc1OC (stereo not given)	inactive: 36.5%	–
O=C(COc1ccccc1)Nc1nnc(S(=O)(=O)Nc2ccccc2)s1	inactive: 2.11%	–
Cc1ccc(Cl)cc1N1CCN(S(=O)(=O)c2cn(C)c(C)n2)CC1	inactive: -11.4%	–
CC1CCCCN1CCCNC(=O)CN1C(=O)c2cccnc2Oc2ccc(Cl)cc21 (stereo not given)	inactive: -0.215%	–
CCOc1ccccc1C1C(C(=O)Nc2ccccc2)=C(C)Nc2nc(SCC(=O)c3ccc(C)cc3)nn21 (stereo not given)	inactive: -5.74%	–
CN(C(=O)CSc1nc(-c2ccccc2)no1)c1ccc(F)cc1	inactive: 12.7%	–
O=C1OCCN1/N=C/c1ccc([N+](=O)[O-])o1	inactive: 0.777%	–
O=C(c1ccc(Cl)cc1)N1CCN(CCc2ccncc2)CC1	inactive: 1.52%	–
Cc1ccc(-c2nnc(Nc3cccc(Cl)c3)c3ccccc23)cc1S(=O)(=O)N1CCN(C)CC1	inactive: 0.0045%	–
CCOc1ccc(Nc2cc(C(=O)NCc3ccccc3Cl)c3ccccc3n2)cc1	inactive: 4.12%	–
Cc1cccc(NC(=O)Cn2c(=O)n(CCCCCC(=O)NCc3ccccc3)c(=O)c3sccc32)c1	inactive: -30.3%	–
CCOC(=O)N1CCN(C(=O)c2ccc3c(c2)N(Cc2ccccc2F)C(=O)c2ccccc2S3(=O)=O)CC1	inactive: -18.4%	–
CCc1ccc(NC(=O)CSc2nc3c(c(=O)[nH]2)CN(Cc2ccc4c(c2)OCO4)CC3)cc1	inactive: -30.7%	–
O=C(COc1ccccc1)NCC(c1ccc(Cl)cc1)N1CCCCC1 (stereo not given)	inactive: -24.5%	–
O=C(CCCc1ccccc1)NC1CC(=O)N(c2cccc(F)c2)C1 (stereo not given)	inactive: -6.59%	–
O=C(Nc1ccc(Br)c(Cl)c1)c1ccc(C(=O)Nc2ccc(Br)c(Cl)c2)cc1	inactive: -9.78%	–
COC(=O)C1=C(C)N(C(C)C)C(=O)C1(NC(=O)c1ccccc1OC)C(F)(F)F (stereo not given)	inactive: -11.2% [at 11.5 µM]	–
CCCCCn1c(CCCNC(=O)c2ccc(Cl)cc2)nc2ccccc21	inactive: -24.2%	–
COc1ccc(CNC(=O)CCc2nnc3n(C)c(=O)c4sccc4n23)cc1	inactive: -4.18%	–

SMILES	activity change, negative = inhibition	Potency
COc1ccc(-c2nc(C(=O)Nc3cccc(C(C)=O)c3)nn2-c2ccccc2Cl)cc1	inactive: -4.86%	–
CCOc1cc(-c2nc(-c3ccc(-c4ccccc4)nc3OCC)no2)cc(OCC)c1OCC	inactive: 6.5%	–
O=C(NCc1ccccc1Cl)c1ccccc1NC(=O)c1nsc2ccccc12	inactive: 79.1%	–
COc1cc(OC)c(NC(=O)c2cnn(-c3ccccc3)c2-n2cccc2)cc1Cl	inactive: -11.2%	–
COCCCNC(=O)c1cc2c(-c3cccc(OC)c3)nn(C)c2s1	inactive: -12.2%	–
CCC(=O)N1CCc2cc(Br)cc(S(=O)(=O)Nc3ccccc3C(=O)OC)c21	inactive: -8.91%	–
CCOC(=O)[C@H](CCc1ccccc1)N[C@H]1CS[C@H](c2cccs2)CN(CC(=O)O)C1=O	inactive	–
CCc1ccc(NC(=O)c2cc(S(=O)(=O)N3CCCC(C)C3)cn2C)cc1 (stereo not given)	inactive: -26.9%	–
COc1cc(CN(C(=O)COc2ccc(F)cc2)c2ccccn2)cc(OC)c1OC	inactive: -12.4%	–
CCOc1ccc(OCC(=O)Nc2ccc(S(=O)(=O)Nc3cc(C)on3)cc2)cc1	inactive: -0.802%	–
COc1cc(NC(=O)CCN2CCN(CCO)CC2)cc(OC)c1	inactive: -11.1%	–
CCc1nn(CC(=O)NCCc2ccc(SC)cc2)c(=O)c2cc3sccc3n12	inactive: -11.7%	–
CCCc1cc(=O)n2[nH]c(NCc3c(F)cccc3Cl)nc2n1	inactive: -18.9%	–
CCOC(=O)COc1ccc(-c2nnn(CC(=O)Nc3ccccc3)n2)cc1	inactive: 8.13%	–
Cc1sc2c(c1C)c(=O)n(CCc1ccccc1)c(=O)n2Cc1ccc(C(C)(C)C)cc1	inactive: -4.35%	–
CCn1c(CNC(=O)c2ccc(OC)cc2)nnc1SCC(=O)Nc1cc(C)ccc1C	inactive: -16.4%	–
Cn1c(/C(C#N)=C/c2ccccc2Br)nc2ccccc21	inactive: 36.4%	–
CCc1cccc(NS(=O)(=O)c2ccc3c(c2)CC(C)N3C(=O)C2CC2)c1 (stereo not given)	–	active: 14.1 µM
COc1ccccc1C(=O)NCc1nc2cccnc2n1Cc1ccc(F)cc1	inactive: 2.98%	–
CCOCN(C(=O)Cn1c(COC)nc2ccccc21)c1c(C)cccc1CC	inactive: 17.5%	–
O=C(Nc1ccc(Oc2ccc(Cl)cc2)c(Cl)c1)c1cc(I)cc(I)c1O	inactive: -1.25%	–
COc1cccc(CNC(=O)C2CCCN(S(=O)(=O)N(C)c3ccc(F)cc3)C2)c1OC (stereo not given)	–	active: 25.1 µM
Cc1cccc(NC(=O)CSC2=Nc3ccccc3C3=NC(CC(=O)NCc4cccs4)C(=O)N23)c1 (stereo not given)	inactive: -2.48%	–
COc1ccccc1/C=C/c1nc(C#N)c(NC2CCCCC2)o1	inactive: 7.32%	–

SMILES	activity change, negative = inhibition	Potency
COc1ccc(CNC(=O)CCCn2nc(C)n3c(cc4sccc43)c2=O)cc1	inactive: -7.72%	–
COCCn1c(C)cc(O)c(C(c2ccccc2OC)N2CCN(c3ccccc3)CC2)c1=O (stereo not given)	inactive: -7.49%	–
Cc1ccc(NC(=O)CN2C=NS(=O)(=O)c3ccccc32)cc1	inactive: -3.21%	–
CCOC(=O)COc1ccc(CC)cc1C(=O)c1ccn2nc(-c3ccc(F)cc3)cc2n1	inactive: -6.27%	–
COc1ccc(-c2noc(CC(=O)N(C)c3cccc(C)c3)n2)cc1	inactive: -9.64%	–
CCOC(=O)c1cnc2ccc(Br)cc2c1NCCN1CCOCC1	inactive: -4.04%	–
COc1ccc(C(=O)c2cn(Cc3ccccc3F)c3cc4c(cc3c2=O)OCCO4)cc1OC	inactive: 15.2%	–
Cc1ccc(N2CC(NC(=O)c3ccccc3C(F)(F)F)CC2=O)cc1C (stereo not given)	inactive: -18.8%	–
COc1ccc(Cl)cc1S(=O)(=O)Nc1ccc2[nH]c(=O)[nH]c2c1	inactive: -17.9%	–
Clc1ccc2c(c1)-n1cc(-c3ccccc3)nc1CO2	inactive: 0.646%	–
CCc1ccc(S(=O)(=O)c2cn(Cc3ccccc3)c3cc(N4CCCC4)c(F)cc3c2=O)cc1	inactive: 3.01%	–
Cc1ccc(Cl)cc1N1CCN(C(=O)CCS(=O)(=O)c2cc(Br)cc3c2N(C(=O)C2CC2)CC3)CC1	inactive: -23.8%	–
O=C(Nc1ccc(C(=O)OCc2cc(=O)n3nc(C4CC4)sc3n2)cc1)c1ccccc1	inactive: -12.2%	–
Cc1ccc2c(c1)N(C(=O)N1CCC(C(=O)NC3CCCCCC3)CC1)CC(C)O2 (stereo not given)	inactive: 33.2%	–
COc1cc(NC(=O)Cc2c(C(=O)O)c(C)cn2C)cc(OC)c1	inactive: -15.6%	–
COc1ccc(/C=C/C(=O)Nc2sc3c(c2C(N)=O)CCC(C)C3)cc1OC (stereo not given)	inactive: -0.342%	–
CCOC(=O)c1c(NC(=O)c2cc(C)on2)sc(C)c1C	inactive: -0.98%	–
Cc1ccc(-n2ncc3c(N4CCN(C)CC4)ncnc32)cc1Cl	inactive: -22.7%	–
CCOc1ccc(NC(=O)CCS(=O)(=O)c2cccc3nonc23)cc1	inactive: -4.91%	–
CNC(=O)c1c[nH]c2ccc(S(=O)(=O)Nc3cccc(Cl)c3C)cc2c1=O	inactive: -20.8%	–
Cc1cc(C)cc(OCc2ccc(C(=O)Nc3ccccc3F)o2)c1	inactive: -3.73%	–
COc1ccc(CNC(=O)CCC(=O)N2CC3CCCN3c3ccccc32)c(OC)c1 (stereo not given)	inactive: -16.6%	–
Cc1cc(C)c2c(=O)cc(C(=O)Nc3sc4c(c3C(=O)NCc3cccnc3)CCCC4)oc2c1	inactive: 21.1%	–
